In all, about 360,000 compounds went through this assay and about 6,000 (1.7%) were called active. Inconclusive results, whose numbers are uncertain, are shown with a selection of clear calls. Calls follow the shape of the dose curve; as a rule, active = well fitted cell-killing curve with a large enough effect; inconclusive = small, poorly fitted or top-dose-only effect, or effect the other way; inactive = flat fitted curve, though single readings scatter. Potencies of inconclusive entries are left out as doubtful fits.
Test: qHTS for induction of synthetic lethality in tumor cells producing 2HG: qHTS for the HT-1080-NT fibrosarcoma cell line;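 also: NT is the 2HG producing partner of a matched IDH1 knockdown line; nearly all actives have a fitted effect of over 55% in size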;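 as to activity, negative = less viability: 0% = DMSO-treated cells and -100% = media-only wells without cells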
Conditions: HT-1080-NT fibrosarcoma viability, CellTiter-Glo ATP luminescence, 48 h; activity, negative = less viability: at 46.1 µM (top of the series) unless noted
Method in brief: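 Compounds were tested in concentration-response format on HT-1080-NT cells for 48 hours at 37 degrees C. Cell viability came from CellTiter-Glo luminescence; curves were classified by r2, response magnitude and activity.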
Potency is read from the fitted curve at half-maximal effect; tags tell the direction and shape of the fitted curve.

| SMILES | Potency | activity, negative = less viability |
| --- | --- | --- |
| O=C(CSc1nnnn1C1CCCC1)Nc1ccc2c(c1)OCO2 | inconclusive [cytotoxic, partial curve, poor fit] | – |
| Cc1ccc(C)n1-c1ccc(C(=O)/C=C/N(C)C)cc1 | inconclusive [cytotoxic, single point] | – |
| O=C(COc1ccc2c(c1)OCO2)Nc1ccc(Cl)cn1 | inconclusive [cytotoxic, single point] | – |
| COC(=O)N/N=C/c1c[nH]c2ccccc12 | – | inactive: 8.74% |
| CC1Nc2ncnc(N3CCc4ccccc4C3)c2N(Cc2ccccc2)C1=O (centres undefined) | inconclusive [cytotoxic, single point] | – |
| C[C@@H]1CN([C@H](C)CO)C(=O)c2cc(NC(=O)Nc3ccc(C(F)(F)F)cc3)ccc2O[C@H]1CN(C)Cc1ccc(Cl)c(Cl)c1 | inconclusive [cytotoxic, single point] | – |
| COC(=O)C1C=CC(OC2OC(COC(C)=O)C(OC(C)=O)C(OC(C)=O)C2OC(C)=O)n2c(=O)n(-c3ccccc3)c(=O)n21 (centres undefined) | inconclusive [cytotoxic, single point] | – |
| COc1c(/C=C2\SC(=Nc3ccccc3Cl)NC2=O)cccc1[N+](=O)[O-] | – | inactive: 0.742% |
| CC1CCCN(CC(=O)Nc2ccc(S(=O)(=O)N3CCCCCC3)cc2)C1 (centres undefined) | active: 22.4 µM | – |
| Cc1ccc(NC(=O)Cn2nc([N+](=O)[O-])c(Br)c2C)cc1C | inconclusive [cytotoxic, single point] | – |
| CN(CCc1ccccc1)C(=O)c1ccc(NC(=O)Cc2ccc(NC(=O)C3CCN(C(=O)c4ccccc4)CC3)cc2)cc1 | inconclusive [cytotoxic, single point] | – |
| Cc1nn(CC(=O)NCCCN2CCN(C)CC2)c(=O)c2cc(-c3ccccc3)nn12 | – | inactive: 0.739% |
| COc1cccc(C(=O)NNC2=C(C(=O)C(F)(F)F)CCC2)c1 | inconclusive [cytotoxic, full curve] | – |
| CSc1ccc(C(=O)C2CCCN(C(=O)c3nn(C)c(=O)c4ccccc34)C2)cc1 (centres undefined) | – | inconclusive: -32.7% [cytotoxic] |
| CCCc1ccc(OCc2ccc(C(=O)N/N=C/c3cccc([N+](=O)[O-])c3)o2)c(OC)c1 | inconclusive [cytotoxic, partial curve] | – |
| CCCCOc1ccc(C(=O)CCN2CCCCC2)cc1 | inconclusive [cytotoxic, single point] | – |
| CN(CCCN1CCCCC1)C(=O)CCc1nnc(C2CCCCC2)o1 | – | inactive: -0.811% |
| O=C(NNc1ccccc1F)c1ccccc1 | inconclusive [cytotoxic, partial curve] | – |
| O=C1CCCC2=C1C1(CCCC1)N=C(Nc1nc3ccccc3s1)N2 | – | inactive: 9.63% |
| COC(=O)C1=C(C)N(c2cc(Cl)cc(Cl)c2)C(=O)C1 | active: 20.6 µM | – |
| CCCCn1c(SCC(=O)N2CCCC2)nc2c1c(=O)n(C)c(=O)n2C | – | inactive: -0.208% |
| NC(=O)CC(NC(=O)c1ccc(Br)cc1)c1ccc(NC2CCCCC2)c([N+](=O)[O-])c1 (centres undefined) | – | inactive: 15.2% |

| SMILES | Potency | activity, negative = less viability |
| --- | --- | --- |
| Cc1cc2ncn(/N=C/c3ccc4c(c3)OCO4)c2cc1C | inconclusive [cytotoxic, single point] | – |
| Cc1cccc(C(=O)Nc2ccc(C(=O)N/N=C/c3ccc4c(c3)OCO4)cc2)c1 | inconclusive [cytotoxic, partial curve, poor fit] | – |
| COc1ccc(CNC(=S)Nc2cccc(C)c2)cc1 | – | inactive: 8.07% |
| CCC(=O)OCCNc1cc(Sc2nccn2C)c2nonc2c1[N+](=O)[O-] | active: 14.6 µM | – |
| CCOc1ccc(C(=O)N/N=C/c2cccc3cccnc23)cc1 | inconclusive [cytotoxic, partial curve] | – |
| Cc1onc(-c2c(F)cccc2Cl)c1C(=O)N1CCCc2ccccc21 | inconclusive [cytotoxic, single point] | – |
| COc1ccc(OC2C(=O)N(c3ccc(C)c(C)c3)C2c2ccc(OC)c(OC)c2)cc1 (centres undefined) | – | inactive: -0.176% |
| Cc1ccc(NC(=O)CN2C(=O)NC(Cc3ccccc3)C2=O)c(Br)c1 (centres undefined) | inconclusive [cytotoxic, single point] | – |
| COc1ccc(Cl)cc1NC(=O)Cn1nc(-c2ccc(C)cc2)n(C)c1=S | inconclusive [cytotoxic, single point] | – |
| Cc1ccc(-c2csc(N3CCN(CCCn4c(C(F)(F)F)nc5ccccc54)CC3)n2)cc1 | inconclusive [cytotoxic, partial curve] | – |
| CC(C)c1ccc(NC(=O)CSc2n[nH]c(=O)n2Cc2ccco2)cc1 | inconclusive [cytotoxic, single point] | – |
| Nc1ncnc2c1ncn2C1OC(CO)C2OC21 (centres undefined) | inconclusive [rising, partial curve] | – |
| Cc1ccccc1N/C(SCc1ccc(Cl)cc1)=C(/C#N)C(=O)NCc1ccco1 | inconclusive [cytotoxic, single point] | – |
| CCc1nn(CC(=O)NCCCN(C)Cc2ccccc2)c(=O)c2cc3sc(C)cc3n12 | inconclusive [cytotoxic, single point] | – |
| COC(=O)c1ccc(S(=O)(=O)NCc2ccccn2)n1C | – | inactive: -6.16% |
| O=C(/C=C/c1ccc(Cl)c([N+](=O)[O-])c1)Nc1ccc(N2CCCC2)c(Cl)c1 | inconclusive [cytotoxic, full curve] | – |
| O=C(NC(=S)NNC(=O)c1ccccc1O)c1ccco1 | – | inconclusive: -30.1% [cytotoxic] |
| Cc1cc(C)n(C(=O)CCCn2nc(C)c([N+](=O)[O-])c2C)n1 | – | inactive: 11.7% |
| COC(C[C@@H]1O[C@H]1C(=O)COCc1ccccc1)OC | – | inactive: 7.45% |
| CCOC(=O)c1ccc(NC(=O)CCc2nc(-c3ccccc3Cl)no2)cc1 | inconclusive [cytotoxic, single point] | – |
| Cn1c(C(=O)NC2CCCCC2)cc2c(=O)n(C)c3ccccc3c21 | – | inactive: 19.8% |
| CCCCCCCOC(=O)c1nc(Cl)c(Cl)c(N)c1Cl | inconclusive [cytotoxic, single point] | – |

From PubChem BioAssay AID686970 (National Center for Advancing Translational Sciences (NCATS), 2013)
